# Data taken from PubChem BioAssay AID463173 (ICCB-Longwood Screening Facility, Harvard Medical School, 2010).
# The whole screen tested about 52,000 compounds, of which about 4,300 (8.3%) were called active. Cut-off read from the data, not from the text of the source: active = survival mostly below about 52% (no sharp cut-off); inactive = mostly above about 56%. Some of the results follow.
# Tested on: DeltatarO mutant
# Assay: S. aureus survival, RN4220 and DeltatarO strains – OD600, teichoic acid synthesis inhibitors, primary screen (AID 463173)
# Details: S. aureus RN4220 wild type/DeltatarO growth, OD600, 18 h, stronger effect = lower value, screened at 18.75 µg/mL (by protocol)
row,Compound,survival
1,CCOC(=O)N1CCN(Cc2ccccn2)CC1,inactive: 63%
2,Cc1nc2sccn2c(=O)c1S(=O)(=O)Nc1ccc(N2CCOCC2)c(Cl)c1,inactive: 97%
3,Cc1ccc(NC(=O)Cn2ncn3c(cc4ccccc43)c2=O)cc1F,inactive: 84%
4,CCC1=C(c2ccc(C)cc2)S(=O)(=O)N=C1N1CCC(C(=O)Nc2ccccc2F)CC1,inactive: 88%
5,COC(=O)c1c(SCC(=O)Nc2cc(OC)cc(OC)c2)[nH]c2ccc(C)cc2c1=O,inactive: 129%
6,O=C1CCCN1C(=O)CN1CCCCC1,inactive: 75%
7,CCOc1ccc(CNCc2c(C(=O)O)c(C)n(Cc3cccc(OC)c3)c2C)cc1OC,inactive: 76%
8,Cc1cc(CN2CCN(c3ccccc3F)CC2)cs1,inactive: 80%
9,CCC1CCC(C(=O)NC(C(=O)Nc2cccc(OC)c2)C(C)C)CC1 (centres undefined),inactive: 69%
10,Cc1nc2nc(CNC(=O)OC(C)(C)C)nn2c(C)c1CCC(=O)NCc1ccc(F)cc1,inactive: 92%
11,CC(NC(=O)c1ccccc1)c1n[nH]c(=S)n1C (centres undefined),inactive: 74%
12,O=C(CN1C(=O)COc2ccc(Cl)cc21)Nc1ccc(F)cc1,inactive: 67%
13,CCN(C(=O)c1nn(-c2ccc(OC)c(Cl)c2)c(=O)c2c1c1ccccc1n2C)c1cccc(C(F)(F)F)c1,inactive: 75%
14,CN1CC(=Nc2nonc2N)N(C)C1=O,inactive: 90%
15,COc1ccc(-c2nc3ccc(NS(=O)(=O)c4ccc(C)cc4)cc3o2)cc1,inactive: 45%
16,O=C(OCc1cc(=O)n2nc(-c3cccs3)sc2n1)c1ccc(Cl)cc1,inactive: 73%
17,CCOC(=O)c1c(-c2ccc(OC)cc2)oc2ccc(OCc3ccccc3C)cc12,inactive: 51%
18,Cc1ccc2cc(C#N)c(N3CCCN(S(=O)(=O)c4ccccc4)CC3)nc2c1,inactive: 69%
19,CCOC(=O)c1c(C)[nH]c(C)c1S(=O)(=O)N1CCCC(C(=O)NCc2cccc(C)c2)C1 (centres undefined),inactive: 88%
20,CCN(CC)CCNC(=O)C1CCN(c2nn3cc(-c4ccc(F)cc4)nc3s2)CC1,inactive: 79%
21,CN(C(=O)Nc1ccccc1)C1CCS(=O)(=O)C1 (centres undefined),inactive: 94%
22,O=c1cc(-c2ccccc2)nc(SCc2nc(-c3ccccc3Cl)no2)[nH]1,inactive: 69%
23,CCOc1cc(C(=O)Nc2cc3c(cc2N2CCOCC2)n(C)c(=O)n3C)cc(OCC)c1OCC,inactive: 90%

row,Compound,survival
1,COc1ccc(CNC(=O)CCCN2C(=O)CSc3c2c(C)nn3-c2ccccc2)cc1,inactive: 80%
2,COC(=O)c1cc2sc(C)cc2n1Cc1cccc(OC)c1,active: 1%
3,Cc1ccc(N2CC(NC(=O)c3cccs3)CC2=O)cc1C (centres undefined),inactive: 91%
4,Cc1cccc(NC(=O)c2ccc(-n3cnc4cccnc43)cc2)c1C,inactive: 82%
5,COc1cc(NC(=O)c2cccc3c2C(=O)N(C2CCCCC2)C3)cc(OC)c1OC,inactive: 53%
6,COc1cccc(N=Nc2c(O)[nH]c(=O)[nH]c2=O)c1,inactive: 101%
7,Cn1c(C(=O)N2CCc3ccccc32)cc2sccc21,inactive: 91%
8,Oc1ccccc1-c1nc(/C=C/c2ccccc2Cl)nn1-c1ccccc1,active: 14%
9,CC1CCN(c2nc(N3CCCCC3)nc(N3CCCCC3)n2)CC1,inactive: 62%
10,Cc1ccccc1CNC(=O)CCCn1c(=O)c2cccn2c2cccnc21,inactive: 114%
11,CNc1ncnc2c1cnn2-c1ccc(C)c(C)c1,inactive: 85%
12,CCOc1ccc(NC(=O)C2CCC(CNS(=O)(=O)c3ccc(Br)s3)CC2)cc1 (centres undefined),inactive: 87%
13,COc1ccc(OC)c(CNC(=O)C(C)n2c(C)c3cnn(-c4ccccc4)c(=O)c3c2C)c1 (centres undefined),inactive: 112%
14,CC1=C(c2ccc(C)c(C)c2)S(=O)(=O)N=C1N1CCC(C(=O)N2CCC(C)CC2)CC1,inactive: 72%
15,CCOc1cc(/C=C(\C#N)C(=O)NCC2CCCO2)ccc1O (centres undefined),inactive: 71%
16,Cc1ccccc1OCc1ccc(-c2nc(C#N)c(NCc3cccnc3)o2)o1,active: 43%
17,COc1ccc(-c2noc(=O)n2Cc2ccccc2)cc1,inactive: 75%
18,CCc1ccc(C(=O)c2cn(CC(=O)Nc3ccc4c(c3)OCO4)c3ccc(OC)cc3c2=O)cc1,inactive: 67%
19,Cn1c(C(=O)Nc2cccc(C(F)(F)F)c2)cc2c(=O)n3ccccc3nc21,inactive: 98%
20,CCOC(=O)Cc1ccc(NC(=O)NCc2cccn2Cc2ccccc2)cc1,active: -4%
21,Cc1ccc(NC(=O)CSc2nc(-c3cccs3)nc3cc(=O)[nH]n23)cc1,inactive: 79%
22,COc1ccc(-n2c(=O)c3sc4ccccc4c3n(CC(=O)Nc3ccccc3F)c2=O)cc1,inactive: 94%
23,CC(C)c1ccc(OC(=O)c2cc(-c3ccc(Cl)cc3)on2)cc1,inactive: 98%

row,Compound,survival
1,COc1ccc(CC(=O)NCC(c2ccc(N(C)C)cc2)N2CCOCC2)cc1 (centres undefined),inactive: 102%
2,Cc1ccc(-n2ncc3c(NCCCn4ccnc4)ncnc32)cc1Cl,inactive: 72%
3,Nc1nnnn1/N=C/c1cccc(Br)c1,inactive: 78%
4,CCN(CC)C(=O)Cn1c(=O)nc(-c2ccccc2F)c2cc(Cl)ccc21,inactive: 77%
5,COC(=O)c1cnc(NCc2ccc(F)cc2)c2ccccc12,inactive: 102%
6,COc1ccc(N2C(=O)C(CC(=O)Nc3ccc(F)cc3)N(Cc3ccc4c(c3)OCO4)C2=O)cc1 (centres undefined),inactive: 76%
7,Cc1cc(F)ccc1S(=O)(=O)Nc1ccc2c(c1)CCCN2C(=O)c1cccs1,inactive: 86%
8,CCCNC(=O)N1[C@H](c2ccc(C)s2)[C@@H](C)C(=O)[C@@H](C)[C@@H]1c1ccc(C)s1,inactive: 44%
9,COC(=O)c1cc2c(ccn2-c2ccc(F)cc2)n1CC(=O)N1CC(C)CC(C)C1 (centres undefined),inactive: 101%
10,Cc1ccc(Cl)cc1N1CCN(C(=O)c2cc(S(=O)(=O)N3CCCC3)cn2C)CC1,inactive: 72%
11,Cc1ccc(Nc2nnc(-c3ccc(C)c(S(=O)(=O)N4CCOCC4)c3)c3ccccc23)c(C)c1,inactive: 115%
12,CCOc1ccc(C(=O)c2cn(Cc3ccc(Cl)cc3)c3cc(OC)c(OC)cc3c2=O)cc1,inactive: 84%
13,CCC(Cc1ccccc1)NC(=O)Cn1ncc2c3ccccc3n(Cc3ccccc3)c2c1=O (centres undefined),inactive: 69%
14,CCc1nc2nc(C)cc(Nc3ccc(OC)cc3OC)n2n1,inactive: 70%
15,Cc1oc(-c2ccc(Cl)cc2)nc1CN1CCC(C(=O)NCCCN2CCN(c3cccc(Cl)c3)CC2)CC1,active: 42%
16,CCOC(=O)COc1ccc(C)cc1C(=O)c1ccn2nc(-c3ccc(C)cc3)cc2n1,inactive: 77%
17,COC(=O)c1ccc(OCC2c3cc(OC)c(OC)cc3CCN2C(=O)C(C)C)cc1 (centres undefined),inactive: 112%
18,COCCNC(=O)c1ccc(CSc2nc3ccncc3n2Cc2ccccc2)cc1,inactive: 91%
19,O=C(CSc1ncc2c(n1)-c1ccccc1N(Cc1ccccc1)S2(=O)=O)Nc1ccccc1,active: -5%
20,COc1ccc(C)cc1NC(=O)NCc1ccc2c(c1)CCN2C(=O)c1ccccc1,inactive: 105%
21,Cc1ccc(NC(=O)Cn2c(=O)n(-c3ccccc3)c(=O)c3c4c(sc32)CCCC4)cc1,inactive: 67%
22,C=Cc1ccc(CN2C(=O)N(c3ccc(CC)cc3)S(=O)(=O)c3ccccc32)cc1,active: 6%
23,COc1ccc(C)cc1NC(=O)CSc1nc(=O)n(Cc2ccncc2)c2c1CCC2,inactive: 123%

row,Compound,survival
1,COc1ccc(C)cc1Nc1nc2cc(Cl)c(Cl)cc2nc1-n1nc(C)cc1C,inactive: 84%
2,Cc1ccc(C)c(CN2C(=O)c3ccccc3S(=O)(=O)c3ccc(C(=O)N4CCN(c5ccccn5)CC4)cc32)c1,inactive: 63%
3,CCc1cccc(N2C(=O)N(CC(=O)NCc3cccc(OC)c3OC)c3ccccc3S2(=O)=O)c1,inactive: 84%
4,O=C(Cc1ccc(Cl)cc1)n1cc(Cl)cn1,inactive: 103%
5,COc1cc(NC(=O)CN2C(=O)COc3ccc(S(=O)(=O)N4CCCCC4)cc32)cc(OC)c1,inactive: 85%
6,CCOc1ccc(C(=O)NCC(c2ccc3c(c2)OCO3)N2CCN(c3ccccc3F)CC2)cc1 (centres undefined),inactive: 79%
7,COCCCNC(=O)C1CCN(Cc2nc(-c3ccc(OC)c(OC)c3)oc2C)CC1,inactive: 88%
8,Cc1ccc(NC(=O)Cn2c(=O)n(Cc3ccco3)c(=O)c3ccc(C(=O)NC4CCCC4)cc32)c(C)c1,inactive: 101%
9,COc1ccc(Cn2nnc(C(=O)Nc3cc(OC)ccc3OC)c2N)cc1,inactive: 60%
10,COc1ccc(OC)c(CCNC(=O)c2c(C)nn(-c3ccc(F)cc3)c2-n2cccc2)c1,inactive: 83%
11,CCn1c(=O)cc(SCC(=O)NCCc2cc(OC)ccc2OC)c2ccccc21,inactive: 61%
12,Cc1nnc(N2CCC(C(=O)NC3CCCCC3)CC2)c2nn(-c3ccc(Cl)cc3)c(C)c12,inactive: 71%
13,CCOc1ccc(NC(=O)c2c(NCc3ccc(C)o3)sc3c2CCC(C)C3)cc1 (centres undefined),inactive: 97%
14,CCC(=O)N1CCc2cc(S(=O)(=O)CCC(=O)N3CCN(c4cc(C)ccc4C)CC3)ccc21,inactive: 81%
15,COc1cccc(NC(=O)CSc2nc3ccccc3n2C)c1,active: 37%
16,Cc1ccc(Cn2nnc3c(=O)[nH]c(C4CCN(S(=O)(=O)c5ccc(S(=O)(=O)NC6CC6)cc5)CC4)nc32)cc1,inactive: 95%
17,COc1ccc(OC)c(NC(=O)CN(C)S(=O)(=O)c2ccc3[nH]c4c(c3c2)CCCC4)c1,inactive: 73%
18,COc1ccccc1CNCCSc1nnnn1C,inactive: 57%
19,CCC(c1nnnn1Cc1ccco1)N(Cc1cccs1)Cc1cc2c(C)cc(C)cc2n2nnnc12 (centres undefined),inactive: 85%
20,Nc1c(-c2nc(-c3ccncc3)no2)nnn1CC(=O)Nc1ccccc1,inactive: 85%
